Test results from PubChem BioAssay AID1745853 (National Center for Advancing Translational Sciences (NCATS), 2022).
This is one part of the list. These are further read-outs of the screen, such as a control signal, another cell line or another target. No call is given for them.

Assays:
Assay in all cases: Primary Screen for Target Class Profiling of Small Molecule Inhibitors of Methyltransferases
[1] = target: Glycine N-methyltransferase (Homo sapiens) (UniProt Q14749); details: purified enzyme, MTase-Glo SAH luminescence; measured here: GNMT inhibition; at 40 µM; stronger effect = lower value
Procedure, shortened: (§1)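 Each enzyme was assayed with SAM and its substrate. SAH formation detected by MTase-Glo luminescence; single-point 40 uM screen[…].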

[2] = target: Guanidinoacetate N-methyltransferase (Homo sapiens) (UniProt Q14353); details: purified enzyme, MTase-Glo SAH luminescence; measured here: GAMT inhibition; at 40 µM; stronger effect = lower value
Procedure, shortened: as §1

[3] = target: Histamine N-methyltransferase (Homo sapiens) (UniProt P50135); details: purified enzyme, MTase-Glo SAH luminescence; measured here: HNMT inhibition; at 40 µM; stronger effect = lower value
Procedure, shortened: as §1

[4] = target: Nicotinamide N-methyltransferase (Homo sapiens) (UniProt P40261); details: purified enzyme, MTase-Glo SAH luminescence; measured here: NNMT inhibition; at 40 µM; stronger effect = lower value
Procedure, shortened: as §1

[5] = target: Phenylethanolamine N-methyltransferase (Homo sapiens) (UniProt P11086); details: purified enzyme, MTase-Glo SAH luminescence; measured here: PNMT inhibition; at 40 µM; stronger effect = lower value
Procedure, shortened: as §1
% is set by controls: 0 for no effect and ±100 for the full control effect.

Row | SMILES | activity change, negative = inhibition [1] [%] | activity change, negative = inhibition [2] [%] | activity change, negative = inhibition [3] [%] | activity change, negative = inhibition [4] [%] | activity change, negative = inhibition [5] [%]
1 | CCN1C(=O)c2cc(C(=O)NCc3cccc(C)c3)nn2CC1(C)C(=O)NC1CCCC1 (stereo not given) | 5.61 | 0 | -2.37 | 6.97 | 5.85
2 | COc1ccc(N(C(=O)c2ccco2)S(=O)(=O)c2ccc3c(c2)n(C)c(=O)n3C)cc1 | -5.1 | 6.55 | 3.94 | -4.39 | -0.079
3 | Cc1ccc(N2C(=O)c3cc4sccc4n3CC2(C)C(=O)NC2CCCCCC2)cc1 (stereo not given) | -7.6 | 0.699 | -3.02 | -6.52 | -7.28
4 | CC1CCCC(NC(=O)C2(C)Cn3c(ccc3-c3ccco3)C(=O)N2CCc2ccccc2)C1C (stereo not given) | -10.4 | 4.66 | -5.47 | -15.5 | -1.9
5 | Cn1cc(C(=O)NC2CC(c3cc(N4CCOCC4)ncn3)C2)cn1 (stereo not given) | -9.55 | -7.11 | -3.81 | -36.6 | -3.45
6 | COc1cccc(CN2C(=O)c3cc(C4CC4)nn3CC2(C)C(=O)NC2CCCCCC2)c1 (stereo not given) | 2.02 | 0 | 9.62 | -12.8 | 2.42
7 | CCCn1c(=O)c2ccc(C(=O)NCC(C)C)cc2n2c(SCC(=O)NC(C)(C)C)nnc12 | 8.15 | 1.2 | 6.89 | 6.54 | 9.59
8 | Cc1cc2c(cc1S(=O)(=O)Nc1ccccc1)n(C)c(=O)n2C | 8.37 | 0 | 6 | -3.5 | 2
9 | Cc1ccc2nc(N)[nH]c(=O)c2c1Sc1ccncc1 | -18.1 | -3.76 | -50.7 | -19.6 | -3.04
10 | O=C(c1ccccc1)c1ccc2n1CCC2C(=O)O (stereo not given) | -2.88 | 4.76 | -2.35 | -7.9 | 2.02
11 | CC(C)CCn1c(=O)c2ccc(C(=O)NC(C)C)cc2n2c(=O)n(Cc3ccccc3F)nc12 | 1.2 | 4 | -0.103 | 0.618 | -0.283
12 | Cn1ccnc1CN1CCOC[C@H](Oc2ccc(C(F)(F)F)cc2)C1 | -7.59 | -5.72 | -5.09 | -12.8 | -6.83
13 | CC(C)NC(=O)c1ccc2c(=O)n(Cc3ccccc3)c3nnc(SCC(=O)NC(C)(C)C)n3c2c1 | -1.29 | 3.28 | 0.564 | 2.35 | -0.928
14 | O=C([C@@H]1C[C@H](Oc2cccnc2)CN1S(=O)(=O)c1cccs1)N1CCCC1 | -3.47 | -0.517 | -0.585 | -3.85 | -0.461
15 | C=CC(C)(C)c1[nH]c2ccccc2c1C[C@@H]1NC(=O)[C@H](C)NC1=O | -3.69 | -3.83 | 8.11 | -17.5 | -13.5
16 | CCn1c(=O)n(CC)c2cc(S(=O)(=O)Nc3ccccc3OC)ccc21 | 15.9 | 2.92 | 11.2 | 2.2 | 8.69
17 | CS(=O)(=O)c1ccc(N2CCN(CC3(O)CNCCOC3)CC2)c(F)c1 (stereo not given) | -1.88 | -0.868 | -0.275 | -5.88 | -6.79
18 | Fc1cccc(-c2nnn3c2nc(NCC2CCCO2)c2cc(Cl)ccc23)c1 (stereo not given) | -3.15 | 4.46 | 3.3 | -1.82 | -5.69
19 | COC(=O)c1cccc(NC(=O)N2Cc3c(sc4c3CCCC4)-n3cccc3C2c2cc(F)cc(F)c2)c1 (stereo not given) | 2.42 | 0.846 | 3.78 | 1.3 | 6.23
20 | O=C(c1nnc(COc2ccc3c(c2)OCO3)n1Cc1ccccc1)N1CCC[C@@H]1c1ccc(Br)cc1 | -3.01 | -0.476 | -2.96 | -10.6 | 9.27

Row | SMILES | activity change, negative = inhibition [1] [%] | activity change, negative = inhibition [2] [%] | activity change, negative = inhibition [3] [%] | activity change, negative = inhibition [4] [%] | activity change, negative = inhibition [5] [%]
21 | COc1ccc(N(C(=O)c2cccnc2)S(=O)(=O)c2ccc3c(c2)n(C)c(=O)n3C)cc1 | -5.05 | 0.164 | 9.36 | 12.8 | 3.23
22 | O=C(C1CCCC1)N1CCC(C(=O)N2CCC(c3nc4ccncc4[nH]3)C2)CC1 (stereo not given) | -7.42 | -6.38 | -7.57 | -11.8 | -15.6
23 | CN1C[C@@H](NC(=O)NC2CCCCC2)C[C@H]1c1nc(-c2cccnc2)no1 | -0.719 | -1.11 | 0.301 | 1.67 | 3.09
24 | CCOC(=O)c1cc2n(n1)CC(C)(C(=O)NCCC(C)C)N(Cc1ccc(F)cc1)C2=O (stereo not given) | -4.85 | 5.04 | -2.96 | 3.98 | -3.33
25 | CN(C)S(=O)(=O)N1CCc2c(nc3cc(-c4ccccc4)[nH]n3c2=O)C1 | -14.4 | -8.33 | -14.4 | -14.2 | -5.81
26 | COCCCN1C(=O)c2cc3ccccc3n2CC1(C)C(=O)NC1CCCCCC1 (stereo not given) | -1.73 | 3.86 | -0.465 | -5.49 | -1.37
27 | Cc1ccc(NC(=O)Cn2nc3n(C(C)C)c(=O)c4ccc(C(=O)NCC(C)C)cc4n3c2=O)c(C)c1 | 3.82 | 0.174 | 6.72 | 2.02 | 2.29
28 | Cc1cc2c(cc3n2CC(C)(C(=O)NC2CCCCCC2)N(Cc2ccccc2C)C3=O)o1 (stereo not given) | 3.74 | 0.489 | 7.51 | -1.65 | -0.813
29 | CC1=CC(=O)CC(C)(C)C1CCC(C)OC1OC(COC(=O)c2cc(O)c(O)c(O)c2)C(O)C(O)C1O (stereo not given) | 0 | 5.05 | 8.7 | -8.01 | 2.02
30 | CCc1nc2c(=O)n(CC(=O)NCCC3=CCCCC3)nc(C)c2s1 | -3.47 | 0.468 | -0.32 | -7.25 | -4.53
31 | CCCCOC(=O)COc1ccc2c(-c3ccccc3)cc(=O)oc2c1C | -3.51 | 0 | 7.54 | -1.16 | -3.35
32 | CCN(CC)C(=O)[C@@H]1CCCN1C1(C(=O)NC)COC1 | -3.8 | -6.73 | -1.56 | -11.6 | -6.21
33 | CN1CCN(c2ccc(-c3nccc4c(=O)cc(N(C)C5CCOCC5)oc34)cn2)CC1 | -1.61 | -2.08 | -4.28 | -1.42 | -0.157
34 | Cc1ccc(CN2C(=O)c3cc4occc4n3CC2(C)C(=O)NC2CCCCC2)cc1 (stereo not given) | -7.52 | 0.338 | -0.685 | -2.08 | -4.28
35 | COc1ccc(C2Oc3c(OC)cc(CCCO)cc3C2COC2OC(CO)C(O)C(O)C2O)cc1OC (stereo not given) | 2.06 | 6.45 | 10.1 | -7.43 | 5.23
36 | COc1ccc(CNC(=O)Cn2ccc3cc(S(=O)(=O)N4CCCC4)ccc32)c(OC)c1 | 5.2 | 4.62 | 5.27 | 0.727 | 3.13
37 | Cc1cc(F)ccc1NS(=O)(=O)c1cc2c(cc1Cl)n(C)c(=O)n2C | 12.2 | 1.89 | 3.18 | 7.9 | 8.78
38 | CCCN1C(=O)c2cc(C(=O)NCc3ccccn3)nn2CC1(C)C(=O)NC1CCCC1 (stereo not given) | 4.7 | 0 | -5.35 | 1.21 | 3.23
39 | CCCn1c(=O)c2ccc(C(=O)NC3CCCCC3)cc2n2c(=O)n(CC(=O)Nc3cccc(C)c3)nc12 | 1.54 | 0.846 | 4.13 | 2.3 | 2.5
